Our source for the binding signal values is publication PMC6212790.

This is one part of the list. At the low end of the ranking the order means little.

This assay concerns the target T1, GST-Rok (full length) (UniProt O34857).
T1 sequence: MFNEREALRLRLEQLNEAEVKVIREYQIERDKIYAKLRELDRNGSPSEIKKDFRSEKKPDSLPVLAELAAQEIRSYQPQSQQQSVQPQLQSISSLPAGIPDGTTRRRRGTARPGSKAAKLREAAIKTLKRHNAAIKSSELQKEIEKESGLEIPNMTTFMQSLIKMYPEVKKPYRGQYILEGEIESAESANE
Kind of assay: protein binding microarray.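 Note: rank score from −0.5 (least bound) to 0.5 (best bound).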 The settings on record: Rok is a gene silencer of Bacillus subtilis; high values mean tight binding; most listed sequences are background and not binding sites; double strand, one strand shown.
For the sequence CCACGGGA, the binding signal is -0.156 E-score.
The result for AGTGGAGA reads -0.152 E-score; that for CTGGCATA, -0.0278 E-score; that for TATGTTCA, 0.159 E-score.
The result for CCTAATAA reads -0.137 E-score; that for GAGTCCAA, 0.0905 E-score; that for AATCTATG, 0.174 E-score.
As to ACATGACC, the binding signal worked out at 0.211 E-score.
In the case of GAAGCAGC, the binding signal is -0.243 E-score.
Under GTTTTGAA stands -0.056 E-score; under ACAGAAAT, 0.134 E-score; under AAACAATG, 0.0437 E-score.
Regarding CAGTACCA, the binding signal was -0.0138 E-score.
Under ACGCGAAT stands 0.235 E-score.
Under CATAAGAA stands 0.266 E-score.
Sequence CCTATAGA displayed a binding signal of 0.0582 E-score.
The result for AATATAGA reads 0.365 E-score; that for AGTTGTCA, 0.0597 E-score.
The result for GATCATCA reads -0.0458 E-score; that for GCCGGCAA, -0.163 E-score.
Regarding ACGGCATG, the binding signal is -0.125 E-score.
With ACGTCGAC, the binding signal was -0.219 E-score.
Turning to CCAACTGA, the binding signal is -0.099 E-score.
As to CCCGGGGC, the binding signal is -0.385 E-score.
Under CTTTCGCA stands -0.0876 E-score; under CAGCGTAC, 0.0603 E-score; under AAGGGATA, -0.135 E-score.
Under ATAATAGA stands 0.271 E-score; under ACGTGGGC, -0.0245 E-score; under ACAAACCA, 0.02 E-score.
The result for CTTTGTAA reads 0.155 E-score.
Take AGCATGCG: the binding signal is -0.0322 E-score.
As to CAACCCGA, the binding signal was -0.056 E-score.
In turn, GATAATGA returned a binding signal of 0.147 E-score.
On to AGGACGGA, for which the binding signal is -0.0841 E-score.
The result for AGCTATGC reads -0.101 E-score.
With AGGTTTTG, the binding signal stood at 0.011 E-score.
The result for ACTTGATC reads 0.000129 E-score.
As to CGGGATCC, the binding signal was -0.107 E-score.
The result for ATTTCAAC reads 0.102 E-score.
Under CTGAGTAC stands 0.0392 E-score; under CGAATTGC, 0.101 E-score.
As to TACTGAAA, the binding signal was found to be 0.076 E-score.
The result for AATTATCG reads 0.217 E-score; that for CAGGGGGA, -0.454 E-score; that for TAACTCAA, 0.247 E-score.
Under CGCTCCAC stands -0.173 E-score; under GTGATAAC, 0.0453 E-score.
Under CACACTGC stands -0.0904 E-score; under GTTTCCCA, -0.0949 E-score.
ACAAAAAC yielded a binding signal of 0.116 E-score.
The result for GCAGTGAC reads -0.239 E-score; that for CGCCTGTA, 0.156 E-score.
The result for ATCTTATC reads 0.202 E-score; that for ATGCAAGC, -0.0813 E-score; that for ATGACTCC, -0.133 E-score.
Under GACGTAAC stands -0.0445 E-score; under TAAACGTA, 0.211 E-score; under ACGAGCGA, -0.0348 E-score.
Take GCACGCCC: the binding signal is -0.349 E-score.
For CGGCAAAG, the binding signal is -0.322 E-score.
ACGAGCAG: the binding signal was -0.126 E-score.
Consider AGGTTCCA, for which the binding signal was -0.241 E-score.
Under ATGTGCAG stands -0.0663 E-score; under ACTGTGCC, -0.0831 E-score.
The sequence ACCTAGGT yielded a binding signal of 0.0061 E-score.
The result for ATTCGTAA reads 0.146 E-score; that for GCGACAGA, 0.0157 E-score.
The result for AACATTCT reads 0.0974 E-score.
In the case of CGCTTTGC, the binding signal is -0.144 E-score.
As for TACCTCAA, the binding signal stood at 0.23 E-score.
The result for CGCAAGAG reads -0.125 E-score; that for CGCAAAAG, -0.106 E-score; that for CATTCCCA, -0.126 E-score.
Regarding AGCCGGAA, the binding signal was -0.0877 E-score.
Under GATTGAAC stands 0.0118 E-score.
Under ATATCCCA stands 0.154 E-score.
As for AACGAGTG, the binding signal was determined as 0.155 E-score.
Under CTGGCCTC stands -0.374 E-score; under GTAGAAGA, 0.247 E-score.
With ACGTGGAT, the binding signal is -0.0483 E-score.
Under AGATACTA stands 0.348 E-score.
The result for ATACTTCC reads 0.252 E-score; that for AACTCACT, 0.115 E-score; that for CAAGCGGG, -0.364 E-score.
The result for CGCGAGGA reads -0.199 E-score; that for GAGGCTTA, -0.154 E-score.
With CTACCATC, the binding signal turned out to be 0.396 E-score.
In the case of CAACCGCG, the binding signal is -0.197 E-score.
AAAAACCC came in with a binding signal of 0.0268 E-score.
The result for CACAAGCG reads 0.0618 E-score; that for AGCCGTGA, -0.106 E-score; that for AGTTCGTC, 0.0184 E-score.
Under AAGTTTCT stands 0.231 E-score; under AATCGAGG, 0.0626 E-score.
Under CGTGAGCC stands -0.276 E-score; under GCGGGGAC, -0.408 E-score; under CACCCGAA, -0.364 E-score.
Take CCTTAGGA: the binding signal is -0.114 E-score.
Turning to CATCATGC, the binding signal amounted to 0.0531 E-score.
GACGATGA: the binding signal was -0.103 E-score.
The result for ACACATAA reads 0.166 E-score; that for AAACTTTC, 0.164 E-score.
As for GCAATTAC, the binding signal was 0.16 E-score.
Consider ACAGTGTG, for which the binding signal was -0.125 E-score.
Under AGAATGAG stands -0.0236 E-score.
For the sequence AACGCCGT, the binding signal is -0.0747 E-score.
The result for AATACGAC reads 0.16 E-score.
The sequence ACTGATCA registered a binding signal of 0.0412 E-score.
The result for GTAGTGAA reads 0.202 E-score; that for ATGTGCGG, -0.0379 E-score; that for CCATAACC, -0.0693 E-score.
Under TATTTTCA stands 0.204 E-score; under GCTAATCA, -0.0073 E-score.
The result for ACGATAGC reads 0.279 E-score; that for AATAAGAC, 0.058 E-score.
Sequence ATATCGTA registered a binding signal of 0.293 E-score.
In the case of GGAGAATA, the binding signal was found to be 0.12 E-score.
Regarding AGACGCAT, the binding signal was -0.0322 E-score.
For ACACATCT, the binding signal turned out to be 0.196 E-score.
Under ACTGTGAT stands 0.154 E-score; under ATCAGCAA, -0.0224 E-score; under GGGGGCAA, -0.248 E-score.
Under CGTTTTTA stands 0.0304 E-score; under AGCTTAGG, 0.072 E-score; under AAGATACC, 0.118 E-score.
The result for AACCGATA reads 0.214 E-score; that for AGCTGGTG, 0.135 E-score.
Turning to CCTGTGGA, the binding signal is -0.117 E-score.
Under AGAGTCCG stands -0.258 E-score.
The result for GATTAGTA reads 0.264 E-score; that for CGATAAGA, 0.0438 E-score; that for CGGAAGTC, 0.0244 E-score.
Under CCCCTCTC stands -0.353 E-score; under TGACGCAA, -0.00909 E-score; under GGAGGAAA, -0.0576 E-score.
Regarding CTGTGTGC, the binding signal was -0.104 E-score.
In turn, ACGTACGA gave a binding signal of 0.0672 E-score.
AACTCAAC gave a binding signal of 0.0607 E-score.
Under AGGACTAG stands 0.0412 E-score; under CGATGGGA, -0.259 E-score.
Under CCCTGGCA stands -0.22 E-score; under CCATGCCC, -0.405 E-score; under ACCACCCG, -0.253 E-score.
Sequence CAATATCG showed a binding signal of 0.08 E-score.
The result for ACAAGTAT reads 0.188 E-score.
Under AGGCCACC stands -0.163 E-score; under ACACTTGA, 0.0758 E-score.
For AAACTGAT, the binding signal was 0.193 E-score.
The result for CGAGAGAA reads 0.0991 E-score; that for CCAAAAGA, -0.246 E-score; that for CAGTGAGG, -0.101 E-score.
Under AAAATTAA stands 0.254 E-score.
In turn, AGCCACAA registered a binding signal of 0.0159 E-score.
Consider AAAGAACA, for which the binding signal was -0.199 E-score.
Under CAGTCTAA stands -0.0991 E-score; under AGAGACGG, -0.259 E-score; under GAAGTTAC, 0.161 E-score.
Consider GTCGAGAC, for which the binding signal is -0.279 E-score.
The result for CTTCTAGC reads 0.19 E-score; that for ACTAGAAA, 0.344 E-score.
The result for CAGTGAGC reads -0.236 E-score; that for ACTGAGAC, -0.113 E-score.
In the case of CGGCTAAG, the binding signal was -0.0584 E-score.
Turning to ATGACTGA, the binding signal is -0.00523 E-score.
Under CTACCCCC stands -0.201 E-score; under GATTTCCC, 0.0194 E-score.
As to CATGTGCG, the binding signal is -0.127 E-score.
The result for AATCTATA reads 0.384 E-score; that for ACGTAATA, 0.3 E-score.
The result for CCGGCTAC reads -0.0888 E-score; that for GAAACCCA, -0.125 E-score.
